# Experimental data reported in patent US20230391845A1, “GLP-1, GIP AND GLUCAGON RECEPTOR TRIPLE AGONISTS” (priority 2020, published 2023).
# Like-named read-outs stand apart in the source and are kept apart here. Not every detail of the peptide structures is certain; ends, links or a residue may be inferred. For part of these data: At least one structure is not confirmed: it was looked up by name or label, or the drawing left a doubt. *1 amine or outer side, *2 acyl side, *3 side chain or, on linkers, in order; H or OH if unused. Where a SMILES comes first, the peptide text is derived from it. Side-chain parts run from the residue outwards. [ ]: non-standard residue; d: D form. The star is where a group is joined. X1 = O=C(O)CCCCCCCCCCCCCCCCCCC(=O)NCC1CCC(C(=O)*)CC1; C20 diacid = O=C(O)CCCCCCCCCCCCCCCCCCC(=O)*; γGlu = O=C(O)[C@H](CCC(=O)[*:2])N[*:1]; εLys = N[C@@H](CCCCN[*:1])C(=O)[*:2]; Trx = NC[C@H]1CC[C@H](C(=O)O)CC1; AEEA = NCCOCCOCC(=O)O; Aib = CC(C)(N)C(=O)O
# Columns and labels:
# [1] = biological target: T1, human GLP-1 receptor (Homo sapiens, UniProt P43220); test: In vitro functional potency (CRE luciferase; whole cells), human GLP-1R; format: cell-based
# T1 construct: expressed in transfected cells; host or cells: BHK cells (parent line BHKTS13) containing CRE luciferase
# T1 sequence (P43220 24-463): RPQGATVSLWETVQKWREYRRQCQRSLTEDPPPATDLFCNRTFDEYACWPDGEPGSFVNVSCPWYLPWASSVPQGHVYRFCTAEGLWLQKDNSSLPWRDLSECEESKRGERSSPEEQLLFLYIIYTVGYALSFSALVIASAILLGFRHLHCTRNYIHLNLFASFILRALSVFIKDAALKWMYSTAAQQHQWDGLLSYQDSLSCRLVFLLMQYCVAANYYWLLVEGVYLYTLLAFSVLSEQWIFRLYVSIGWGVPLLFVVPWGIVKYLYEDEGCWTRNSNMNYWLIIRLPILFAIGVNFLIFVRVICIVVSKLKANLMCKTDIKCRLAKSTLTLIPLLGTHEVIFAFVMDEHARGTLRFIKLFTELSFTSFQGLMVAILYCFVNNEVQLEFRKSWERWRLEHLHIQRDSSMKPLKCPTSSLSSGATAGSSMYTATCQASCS
# [2] = Maximal efficacy study in DIO mice, daily s.c. dose titration for up to 60 days (body weight, food intake); format: in vivo, C57BL/6J male mice
# Protocol: The purpose of this example is to assess the in vivo effect of selected triple agonists on pharmacodynamic parameters in diet-induced obese (DIO) mice. The animals were treated once daily via subcutaneous injection with a liquid formulation of the triple agonist to be tested to assess effects on body weight, foot intake, and glucose tolerance.
# C57BL/6J male mice were purchased from Jackson Laboratories at approximately 8 weeks of age. Mice were group housed and fed a high-fat, high-sugar diet from Research Diets (D12331). Mice were maintained on this diet for 12 weeks prior to initializing the pharmacology studies. Mice exceeding a measured body weight of 50 grams were considered diet-induced obese (DIO) and included in pharmacology studies. Mice were exposed to a controlled 12 h:12 h light:dark cycle at ambient room temperature (22° C.) with ab libitum access to food and water. Studies were approved by and performed according to the guidelines of the Institutional Animal Care and Use Committee of the University of Cincinnati.
# All compounds in the study were formulated in the following buffer: 50 mM phosphate; 70 mM sodium chloride; 0.05% Tween-80, pH 7.4. Dosing solutions were formulated in glass vials and stored at 2-8° C. Dosing solutions were brought to room temperature before dosing and returned to 2-8° C. after dosing.
# DIO mice were distributed into groups (n=8 per group) such that statistical variations in the mean and standard deviations of fat mass and body weight were minimized between groups. The animals were grouped to receive treatment as follows: Vehicle or GLP-1/GIP/Gcg receptor triple agonists as described herein, where vehicle is 50 mM phosphate, 70 mM sodium chloride; 0.05% (v/v) Tween-80, pH 7.4. The test compounds were dissolved in the vehicle, to stock concentrations of […], then diluted 50- to 200-fold in the vehicle to achieve the desired dosing solution concentrations. Animals were dosed subcutaneously once daily in the morning for each day of treatment with dosing solution at a volume of 2-5 μL per gram of body weight as necessary to achieve the desired dose (e.g. 0.3 nmol/kg, 1.0 nmol/kg, or 3.0 nmol/kg).
# Body weight (BW) and food intake were measured immediately prior to dosing each day. The percent change in body was calculated individually for each mouse based on initial body weight prior to the first injection.
# In one study, DIO mice received a daily subcutaneous dose for up to 60 days of one of the following: vehicle, Compound No. 21, Compound No. 30, or Compound No. 33. The dose of each compound was up-titrated to maximal efficacy based on the titration schedule included in Table 4. Mice that achieved body weight normalization, defined as a body weight of 22.5 g or less, were voluntarily removed from the study. All triple agonist compounds tested resulted is substantially greater reductions of body weight and food intake than vehicle. […] This may be explained by the similar GLP-1R and GIPR in vitro potency but reduced in vitro GcgR potency of Compound No. 21 compared to Compound No. 30 and Compound No. 33 when investigated with the protocol described in Example 2 except using the mouse-specific receptors.
# [3] = BHK CRE luc2P hGLP-1R whole cells; Table 2; read-out: hGLP-1R CRE Luc EC50
# [4] = read-out: hGLP-1R CRE Luc EC50; BHK CRE luc2P hGLP-1R whole cells; Table 2
# [5] = s.c. once daily, dose titration of Table 4, last day of treatment, mean ± SEM
smiles,measurement,setting,value
CC[C@H](C)[C@H](NC(=O)[C@H](CO)NC(=O)[C@H](Cc1ccc(O)cc1)NC(=O)[C@H](CC(=O)O)NC(=O)[C@H](CO)NC(=O)[C@@H](NC(=O)[C@H](Cc1ccccc1)NC(=O)[C@@H](NC(=O)CNC(=O)[C@H](CCC(N)=O)NC(=O)C(C)(C)NC(=O)[C@@H](N)Cc1ccc(O)cc1)[C@@H](C)O)[C@@H](C)O)C(=O)N[C@@H](Cc1ccc(O)cc1)C(=O)N[C@@H](CC(C)C)C(=O)N[C@@H](CCC(=O)O)C(=O)N[C@@H](CCCCNC(=O)COCCOCCNC(=O)COCCOCCNC(=O)CC[C@H](NC(=O)C1CCC(CNC(=O)CCCCCCCCCCCCCCCCCCC(=O)O)CC1)C(=O)O)C(=O)N[C@@H](CCC(N)=O)C(=O)N[C@@H](C)C(=O)N[C@@H](C)C(=O)N[C@@H](CCC(N)=O)C(=O)N[C@@H](CCC(=O)O)C(=O)N[C@@H](Cc1ccccc1)C(=O)N[C@H](C(=O)N[C@@H](CCC(N)=O)C(=O)N[C@@H](Cc1c[nH]c2ccccc12)C(=O)N[C@@H](CC(C)C)C(=O)N[C@@H](CC(C)C)C(=O)N[C@@H](CCC(=O)O)C(=O)NCC(=O)NCC(=O)N1CCC[C@H]1C(=O)N[C@@H](CO)C(=O)N[C@@H](CO)C(=O)NCC(=O)N[C@@H](C)C(=O)N1CCC[C@H]1C(=O)N1CCC[C@H]1C(=O)N1CCC[C@H]1C(=O)N[C@@H](CO)C(N)=O)C(C)C (stereo partly drawn) [Compound No. 20] (H-Y[Aib]QGTFTSDYSIYLEK([AEEA-AEEA-γGlu-X1])QAAQEFVQWLLEGGPSSGAPPPS-NH2; N-terminus assumed),EC50,[1]; [3],5.1 pM
CC[C@H](C)[C@H](NC(=O)[C@H](CO)NC(=O)[C@H](Cc1ccc(O)cc1)NC(=O)[C@H](CC(=O)O)NC(=O)[C@H](CO)NC(=O)[C@@H](NC(=O)[C@H](Cc1ccccc1)NC(=O)[C@@H](NC(=O)CNC(=O)[C@H](CCC(N)=O)NC(=O)C(C)(C)NC(=O)[C@@H](N)Cc1ccc(O)cc1)[C@@H](C)O)[C@@H](C)O)C(=O)N[C@@H](Cc1ccc(O)cc1)C(=O)N[C@@H](CC(C)C)C(=O)N[C@@H](CCC(=O)O)C(=O)N[C@@H](CCCCNC(=O)COCCOCCNC(=O)COCCOCCNC(=O)CC[C@H](NC(=O)[C@H]1CC[C@H](CNC(=O)CCCCCCCCCCCCCCCCCCC(=O)O)CC1)C(=O)O)C(=O)N[C@@H](CCC(N)=O)C(=O)N[C@@H](C)C(=O)N[C@@H](C)C(=O)NC(C)(C)C(=O)N[C@@H](CCC(=O)O)C(=O)N[C@@H](Cc1ccccc1)C(=O)N[C@H](C(=O)N[C@@H](CCC(N)=O)C(=O)N[C@@H](Cc1c[nH]c2ccccc12)C(=O)N[C@@H](CC(C)C)C(=O)N[C@@H](CC(C)C)C(=O)N[C@@H](CCC(=O)O)C(=O)NCC(=O)NCC(=O)N1CCC[C@H]1C(=O)N[C@@H](CO)C(=O)N[C@@H](CO)C(=O)NCC(=O)N[C@@H](C)C(=O)N1CCC[C@H]1C(=O)N1CCC[C@H]1C(=O)N1CCC[C@H]1C(=O)N[C@@H](CO)C(N)=O)C(C)C [Compound No. 14] (H-Y[Aib]QGTFTSDYSIYLEK([AEEA-AEEA-γGlu-Trx-C20 diacid])QAA[Aib]EFVQWLLEGGPSSGAPPPS-NH2; N-terminus assumed),EC50,[1]; [4],4.3 pM
CC[C@H](C)[C@H](NC(=O)[C@H](CO)NC(=O)[C@H](Cc1ccc(O)cc1)NC(=O)[C@H](CC(=O)O)NC(=O)[C@H](CO)NC(=O)[C@@H](NC(=O)[C@H](Cc1ccccc1)NC(=O)[C@@H](NC(=O)CNC(=O)[C@H](Cc1c[nH]cn1)NC(=O)C(C)(C)NC(=O)[C@@H](N)Cc1c[nH]cn1)[C@@H](C)O)[C@@H](C)O)C(=O)N[C@@H](Cc1ccc(O)cc1)C(=O)N[C@@H](CC(C)C)C(=O)N[C@@H](CCC(=O)O)C(=O)N[C@@H](CCCCNC(=O)[C@@H](N)CCCCNC(=O)[C@@H](N)CCCCNC(=O)CC[C@H](NC(=O)C1CCC(CNC(=O)CCCCCCCCCCCCCCCCCCC(=O)O)CC1)C(=O)O)C(=O)N[C@@H](CCC(N)=O)C(=O)N[C@@H](C)C(=O)N[C@@H](C)C(=O)NC(C)(C)C(=O)N[C@@H](CCC(=O)O)C(=O)N[C@@H](Cc1ccccc1)C(=O)N[C@H](C(=O)N[C@@H](CCC(N)=O)C(=O)N[C@@H](Cc1c[nH]c2ccccc12)C(=O)N[C@@H](CC(C)C)C(=O)N[C@@H](CC(C)C)C(=O)N[C@@H](CCC(=O)O)C(=O)NCC(=O)NCC(=O)N1CCC[C@H]1C(=O)N[C@@H](CO)C(=O)N[C@@H](CO)C(=O)NCC(=O)N[C@@H](C)C(=O)N1CCC[C@H]1C(=O)N1CCC[C@H]1C(=O)N1CCC[C@H]1C(=O)N[C@@H](CO)C(N)=O)C(C)C (stereo partly drawn) [Compound No. 21] (H-H[Aib]HGTFTSDYSIYLEK([εLys-εLys-γGlu-X1])QAA[Aib]EFVQWLLEGGPSSGAPPPS-NH2; N-terminus assumed),Absolute BW (grams) Day 0,"[2]; Day 0 (baseline), mean ± SEM",57.2 ± 1.5 grams
same,Absolute BW (grams) Last day of treatment,[2]; [5],26.0 ± 1.8 grams
same,Change in BW (%) Last day of treatment,[2]; [5],−54.8 ± 2.2%
same,Average food intake per mouse (grams/day),"[2]; s.c. once daily, dose titration of Table 4, mean ± SEM, n = 1-2",1.58 grams/day
same,reduction of body weight (in words),"[2]; titrated daily s.c. dose, vs vehicle, or vs Compound No. 30 and 33 at time points prior to day 42",inferior reduction
same,EC50,[1]; [4],3 pM
CC[C@H](C)[C@H](NC(=O)[C@H](CO)NC(=O)[C@H](Cc1ccc(O)cc1)NC(=O)[C@H](CC(=O)O)NC(=O)[C@H](CO)NC(=O)[C@@H](NC(=O)[C@H](Cc1ccccc1)NC(=O)[C@@H](NC(=O)CNC(=O)[C@H](Cc1c[nH]cn1)NC(=O)C(C)(C)NC(=O)[C@@H](N)Cc1c[nH]cn1)[C@@H](C)O)[C@@H](C)O)C(=O)N[C@@H](Cc1ccc(O)cc1)C(=O)N[C@@H](CC(C)C)C(=O)N[C@@H](CCC(=O)O)C(=O)N[C@@H](CCCCNC(=O)[C@@H](N)CCCCNC(=O)[C@@H](N)CCCCNC(=O)CC[C@H](NC(=O)C1CCC(CNC(=O)CCCCCCCCCCCCCCCCCCC(=O)O)CC1)C(=O)O)C(=O)N[C@@H](CCC(N)=O)C(=O)N[C@@H](C)C(=O)N[C@@H](C)C(=O)N[C@@H](CCC(N)=O)C(=O)N[C@@H](CCC(=O)O)C(=O)N[C@@H](Cc1ccccc1)C(=O)N[C@H](C(=O)N[C@@H](CCC(N)=O)C(=O)N[C@@H](Cc1c[nH]c2ccccc12)C(=O)N[C@@H](CC(C)C)C(=O)N[C@@H](CC(C)C)C(=O)N[C@@H](CCC(=O)O)C(=O)NCC(=O)NCC(=O)N1CCC[C@H]1C(=O)N[C@@H](CO)C(=O)N[C@@H](CO)C(=O)NCC(=O)N[C@@H](C)C(=O)N1CCC[C@H]1C(=O)N1CCC[C@H]1C(=O)N1CCC[C@H]1C(=O)N[C@@H](CO)C(N)=O)C(C)C (stereo partly drawn) [Compound No. 23] (H-H[Aib]HGTFTSDYSIYLEK([εLys-εLys-γGlu-X1])QAAQEFVQWLLEGGPSSGAPPPS-NH2),EC50,[1]; [3],2 pM
